IC50 is the fitted dose that halves viability relative to control wells, and lower means more sensitive; a limit (>, <) means that the fit lies beyond the doses tested. AUC sums up the same curve from the lowest dose to the 256-fold higher top dose: 1 means no effect, lower means more sensitive. For some of these results: An inferred top dose was derived from the fitted curves, not read from the paper. For some of these results: Where an entry number is given, a second screen of the drug exists; the two often differ.
Experiments:
Assay in all cases: Viability of human cancer cell lines after 72 h of drug (GDSC screen)
BX-912 = compound: O=C(Nc1cccc(Nc2ncc(Br)c(NCCc3cnc[nH]3)n2)c1)N1CCCC1 [BX-912]; conditions: top dose 10.24 µM; top dose inferred
Experimental: (§1)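 Human cancer cell lines in 384-well plates, medium with 10% serum, drug for 72 h over a 256-fold dose range (nine 2-fold or five 4-fold steps up to the top dose). Adherent lines were fixed and stained with the nucleic acid dye Syto60, suspension lines read with resazurin; signal relative to control wells, capped at 0 and 100%. One two-parameter sigmoid per drug and line, fitted in a mixed model over all curves with the slope shared within a line.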

Tamoxifen = compound: CC/C(=C(\c1ccccc1)c1ccc(OCCN(C)C)cc1)c1ccccc1 [Tamoxifen]; conditions: top dose 5 µM
Experimental: as §1

NSC-87877 = compound: O=S(=O)(O)c1ccc2cc(N=Nc3cc(S(=O)(=O)O)c4cccnc4c3O)ccc2c1 [NSC-87877]; conditions: top dose 16 µM; top dose inferred
Experimental: as §1

LAQ824 = compound: O=C(/C=C/c1ccc(CN(CCO)CCc2c[nH]c3ccccc23)cc1)NO [LAQ824]; conditions: top dose 1.024 µM; top dose inferred
Experimental: as §1

OSI-930 = compound: O=C(Nc1ccc(OC(F)(F)F)cc1)c1sccc1NCc1ccnc2ccccc12 [OSI-930]; conditions: top dose 10.24 µM
Experimental: as §1

VNLG/124 = compound: CCCC(=O)OCc1ccc(OC(=O)/C=C(C)/C=C/C=C(C)/C=C/C2=C(C)CCCC2(C)C)cc1 [VNLG/124]; conditions: top dose 5.12 µM; top dose inferred
Experimental: as §1

Masitinib = compound: Cc1ccc(NC(=O)c2ccc(CN3CCN(C)CC3)cc2)cc1Nc1nc(-c2cccnc2)cs1 [Masitinib]; conditions: top dose 20 µM
Experimental: as §1

Elesclomol = compound: CN(NC(=O)CC(=O)NN(C)C(=S)c1ccccc1)C(=S)c1ccccc1 [Elesclomol]; conditions: top dose 0.2 µM; top dose inferred
Experimental: as §1

Bleomycin = compound: Cc1c(N)nc([C@H](CC(N)=O)NC[C@H](N)C(N)=O)nc1C(=O)N[C@H](C(=O)N[C@H](C)[C@@H](O)[C@H](C)C(=O)N[C@H](C(=O)NCCc1nc(-c2nc(C(=O)NCCC[S+](C)C)cs2)cs1)[C@@H](C)O)[C@@H](OC1OC(CO)C(O)C(O)C1OC1OC(CO)C(O)C(OC(N)=O)C1O)c1cnc[nH]1 [Bleomycin]
Experimental: as §1

[1] = top dose 50 µM, screen: GDSC drug entry 1378, top dose inferred
[2] = top dose 64 µM, screen: GDSC drug entry 190

Row | Cell Line | AUC (BX-912) | IC50 (BX-912) [µM] | AUC (Tamoxifen) | IC50 (Tamoxifen) [µM] | AUC (NSC-87877) | IC50 (NSC-87877) [µM] | AUC (LAQ824) | IC50 (LAQ824) [µM] | AUC (OSI-930) | IC50 (OSI-930) [µM] | AUC (VNLG/124) | IC50 (VNLG/124) [µM] | AUC (Masitinib) | IC50 (Masitinib) [µM] | AUC (Elesclomol) | IC50 (Elesclomol) [µM] | AUC (Bleomycin; [1]) | IC50 (Bleomycin; [1]) [µM] | AUC (Bleomycin; [2]) | IC50 (Bleomycin; [2]) [µM]
1 | SUP-M2 (anaplastic large cell lymphoma, suspension) | 0.341 | 0.26 | 0.952 | > 5 | 0.986 | > 16 | 0.542 | 0.0812 | 0.919 | 9.05 | 0.932 | > 5.12 | 0.882 | 12.8 | 0.652 | 0.0295 | 0.076 | 0.21 | 0.323 | 1.46
2 | CAKI-1 (kidney, adherent) | 0.971 | > 10.2 | 0.915 | > 5 | 0.977 | > 16 | 0.59 | 0.127 | 0.977 | > 10.2 | 0.957 | > 5.12 | 0.893 | > 20 | 0.586 | – | 0.469 | 2.47 | 0.329 | 1.05
3 | EB2 (Burkitt lymphoma, suspension) | 0.503 | 0.652 | 0.988 | > 5 | 0.989 | > 16 | 0.39 | 0.0328 | 0.728 | 2.64 | 0.954 | > 5.12 | 0.547 | 1.66 | 0.869 | 0.156 | 0.398 | 1.68 | 0.24 | 0.778
4 | DB (B-cell lymphoma, suspension) | 0.873 | > 10.2 | 0.965 | > 5 | 0.976 | > 16 | 0.331 | 0.0203 | 0.953 | > 10.2 | 0.973 | > 5.12 | 0.824 | 13.9 | 0.882 | > 0.2 | 0.876 | > 50 | 0.562 | 6.05
5 | NCI-H2135 (non-small cell lung carcinoma, adherent) | 0.922 | > 10.2 | 0.987 | > 5 | 0.975 | > 16 | 0.521 | 0.073 | 0.972 | > 10.2 | 0.973 | > 5.12 | 0.932 | > 20 | 0.951 | > 0.2 | 0.976 | > 50 | 0.46 | 3.13
6 | KARPAS-620 (haematopoietic neoplasm, suspension) | 0.566 | 0.941 | 0.98 | > 5 | 0.991 | > 16 | 0.283 | 0.0174 | 0.881 | 8.09 | 0.956 | > 5.12 | 0.595 | 2.19 | 0.721 | 0.0475 | 0.99 | > 50 | 0.807 | 27.4
7 | NCI-H1581 (large cell lung carcinoma, semi-adherent) | 0.831 | 5.8 | 0.987 | > 5 | 0.986 | > 16 | 0.563 | 0.0939 | 0.931 | > 10.2 | 0.987 | > 5.12 | 0.847 | 13 | 0.625 | 0.0268 | 0.714 | 11.9 | 0.896 | > 64
8 | MEL-JUSO (melanoma, adherent) | 0.813 | 6.38 | 0.978 | > 5 | 0.96 | > 16 | 0.435 | 0.0416 | 0.956 | > 10.2 | 0.981 | > 5.12 | 0.852 | 18.3 | 0.485 | 0.0113 | 0.468 | 2.53 | 0.095 | < 0.25
9 | LC4-1 (lymphoblastic leukaemia, suspension) | 0.664 | 1.92 | 0.972 | > 5 | 0.982 | > 16 | 0.243 | 0.0106 | 0.94 | > 10.2 | 0.882 | > 5.12 | 0.803 | 11.2 | 0.872 | > 0.2 | 0.824 | 34.1 | 0.676 | 13.1
10 | UACC-257 (melanoma, adherent) | 0.955 | > 10.2 | 0.97 | > 5 | 0.973 | > 16 | 0.463 | 0.0494 | 0.982 | > 10.2 | 0.975 | > 5.12 | 0.9 | > 20 | 0.577 | 0.0214 | 0.843 | 48.8 | 0.905 | > 64
11 | HT-1376 (bladder, adherent) | 0.985 | > 10.2 | 0.93 | > 5 | 0.985 | > 16 | 0.474 | 0.0537 | 0.976 | > 10.2 | 0.985 | > 5.12 | 0.984 | > 20 | 0.817 | 0.138 | 0.841 | 44 | 0.613 | 8.63
12 | Ca9-22 (head and neck, adherent) | 0.965 | > 10.2 | 0.975 | > 5 | 0.98 | > 16 | 0.295 | 0.0178 | 0.979 | > 10.2 | 0.987 | > 5.12 | 0.973 | > 20 | 0.332 | 0.00444 | 0.196 | 0.427 | 0.282 | 1.02
13 | HOS (osteosarcoma, adherent) | 0.987 | > 10.2 | 0.967 | > 5 | 0.99 | > 16 | 0.457 | 0.0498 | 0.977 | > 10.2 | 0.992 | > 5.12 | 0.95 | > 20 | 0.261 | 0.00299 | 0.275 | 0.82 | 0.104 | 0.288

— the supplement of paper PMC4967469
